# Laboratory results reported in publication PMC4336329 (PLoS ONE, 2015).
# Screen size: about 310,000 compounds; about 2,200 (0.71%) showed an effect of 50% or more. Effects have a minus sign here. The list shows a part of the results.
# Target: human ether-à-go-go-related gene (hERG) potassium channel (human, UniProt Q12809)
# Experiment: primary screen, population patch clamp on CHO cells stably expressing hERG
# Sequence of human ether-à-go-go-related gene (hERG) potassium channel (Q12809 whole entry, looked up): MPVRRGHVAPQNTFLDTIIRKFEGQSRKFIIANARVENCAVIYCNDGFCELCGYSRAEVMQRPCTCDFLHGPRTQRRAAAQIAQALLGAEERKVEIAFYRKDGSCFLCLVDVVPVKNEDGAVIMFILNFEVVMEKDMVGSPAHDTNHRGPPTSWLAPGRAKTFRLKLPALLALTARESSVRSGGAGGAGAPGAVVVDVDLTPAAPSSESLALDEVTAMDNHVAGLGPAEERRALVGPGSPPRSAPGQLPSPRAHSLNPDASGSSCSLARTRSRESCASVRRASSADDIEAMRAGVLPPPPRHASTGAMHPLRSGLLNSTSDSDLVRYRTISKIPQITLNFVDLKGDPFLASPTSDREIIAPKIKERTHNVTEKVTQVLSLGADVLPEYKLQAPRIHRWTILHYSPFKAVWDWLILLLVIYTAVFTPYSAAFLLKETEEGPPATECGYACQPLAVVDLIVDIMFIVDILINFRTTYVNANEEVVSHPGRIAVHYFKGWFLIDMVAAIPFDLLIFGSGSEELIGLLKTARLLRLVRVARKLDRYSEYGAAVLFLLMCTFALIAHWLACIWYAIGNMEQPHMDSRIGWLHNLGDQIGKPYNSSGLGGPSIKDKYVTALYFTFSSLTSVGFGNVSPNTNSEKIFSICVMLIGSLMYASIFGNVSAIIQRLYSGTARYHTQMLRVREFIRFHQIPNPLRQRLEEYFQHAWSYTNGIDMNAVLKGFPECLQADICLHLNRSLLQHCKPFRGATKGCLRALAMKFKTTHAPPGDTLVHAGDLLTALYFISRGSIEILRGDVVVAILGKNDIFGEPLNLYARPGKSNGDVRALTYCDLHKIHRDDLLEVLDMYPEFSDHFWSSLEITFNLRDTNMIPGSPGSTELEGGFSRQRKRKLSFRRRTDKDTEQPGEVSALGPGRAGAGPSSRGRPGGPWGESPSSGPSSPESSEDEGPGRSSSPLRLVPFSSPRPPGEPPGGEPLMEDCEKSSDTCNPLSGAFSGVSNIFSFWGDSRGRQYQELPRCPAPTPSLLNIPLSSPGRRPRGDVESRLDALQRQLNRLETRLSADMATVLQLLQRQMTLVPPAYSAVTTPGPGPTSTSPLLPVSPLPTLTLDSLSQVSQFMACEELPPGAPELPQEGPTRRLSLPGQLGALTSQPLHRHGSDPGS
row,SMILES,"hERG current change (%, negative = inhibition) at 1uM [%]"
1,CCCc1cc(=O)[nH]c(SCC(=O)c2c(N)n(C3CC3)c(=O)[nH]c2=O)n1,3.05
2,COc1cccc(OC)c1OCCCc1c(C)n[nH]c1C,2.68
3,CC(C)C(NC(=O)C12CC3CC(CC(C3)C1)C2)C(=O)N/N=C/C1=C(N2CCOCC2)C(=C\c2cccc([N+](=O)[O-])c2)/CC1 (stereo not drawn),3.54
4,Cl.c1ccc(-c2csc(=Nc3cccnc3)n2CC2CCCO2)cc1 (stereo not drawn),6.32
5,CN(C)c1ccnc(Oc2ccc(C(C)(C)C)cc2)c1C#N,-6.53
6,CCN1C(=O)N[C@@H](CCc2ccccc2)C(C(C)=O)=C1C,14.7
7,O=C(N/N=C/c1cccs1)c1ccco1,13.3
8,Cc1cc(C(=O)Nc2nnc(-c3ccccc3)s2)no1,11.4
9,c1ccc(CN2CCN(c3nc(-c4ccccn4)nc4ccccc34)CC2)cc1,8.49
10,Cc1nnc(SCC(=O)NC2CCCC2)s1,6.18
11,Cn1c(O)c(C(=Nc2ccc(F)cc2)c2ccccc2Cl)c(=O)n(C)c1=O,14.9
12,CCc1nnc(NC(=O)CC23CC4CC(CC(C4)C2)C3)s1,13.1
13,CC(C)CC[n+]1ccn(C2=C([O-])c3ccccc3C(=O)/C2=N\S(=O)(=O)c2ccccc2)c1,13.3
14,O=[N+]([O-])c1ccc(Cl)c(S(=O)(=O)Nc2cccc(-c3ccc(N4CCOCC4)nn3)c2)c1,-4.25
15,O=C(COC(=O)c1nc(Cl)c(Cl)c(Cl)c1Cl)c1ccc[nH]1,0.96
16,Cc1c(C(=O)Nc2ccc(S(=O)(=O)Nc3ncccn3)cc2)oc2ccc(F)cc12,15.1
17,CC(=O)Nc1ccc(NC2=CC(=O)CC(C)(C)C2)cc1,7.82
18,CC(C)Nc1nc(-c2cccnc2)nc(-c2ccc(Cl)cc2)c1C#N,5.3
19,Cc1cccc(N2CCN(C(=O)CCn3c(=S)[nH]c4cc5c(cc4c3=O)OCO5)CC2C)c1 (stereo not drawn),5.83
20,O=C(/C=C/c1ccc(Cl)cc1)N1CCN(c2ccc(Cl)cc2[N+](=O)[O-])CC1,-81.4
21,CC(C)(Oc1ccc(Cl)cc1)C(=O)Nc1cccnc1,-10.2
22,Cc1ccc(S(=O)(=O)N2CCN(C(=O)COC(=O)CCOc3ccc(C(C)(C)C)cc3)CC2)cc1,4.89
23,Cc1nc2nc(COc3ccccc3)[nH]n2c(=O)c1Cl,11

row,SMILES,"hERG current change (%, negative = inhibition) at 1uM [%]"
1,O=C(Nc1ccc(N2CCOCC2)cc1)c1cccnc1,11
2,Cc1ccc(C(=O)c2coc3ccc(O)c(Cl)c23)cc1,-4.28
3,Cc1nc2[nH]c(=O)c3c(n2n1)NC1=C(C(=O)CC(C)(C)C1)C3c1ccc(F)cc1 (stereo not drawn),11.6
4,CCCc1cc(C(=O)Nc2sc3c(c2C#N)CCC3)no1,16.8
5,Cn1nc(C(C)(C)C)c([N+](=O)[O-])c1C(=O)Nc1ccccc1,4.24
6,COc1ccc(N2CC(C(=O)N[C@H](C(=O)NC3CCCCC3)C(C)C)CC2=O)cc1 (stereo partly drawn),10.7
7,CCOc1ccc(NC(=O)C2CCC(CNc3c(N4CCCCC4)c(=O)c3=O)CC2)cc1 (stereo not drawn),20.9
8,CCOc1ccc(-c2cn(S(=O)(=O)c3cccc4nsnc34)nc2N)cc1,7.97
9,COc1ccc(C)cc1S(=O)(=O)N(C)CC(=O)N1CCCCCC1,18.4
10,COC(=O)C1=C(C)NC(=O)CC1c1cc2c(cc1Br)OCO2 (stereo not drawn),2.1
11,NS(=O)(=O)c1ccc(N2C(=O)C3CC=CCC3C2=O)cc1 (stereo not drawn),9.34
12,CCN(CC(=O)N1CCOCC1)S(=O)(=O)c1ccccc1,12.4
13,CCCOc1cccc(C(=O)N(Cc2cccs2)C2CCS(=O)(=O)C2)c1 (stereo not drawn),-4.8
14,Cc1cccc(N2CCN(C(c3cccs3)c3nnnn3C(C)(C)C)CC2)c1C (stereo not drawn),1.13
15,COc1ccccc1NC(=S)NC(NC(=O)c1ccco1)C(Cl)(Cl)Cl (stereo not drawn),4.44
16,CCCC(=O)Nc1c(-c2cccc(OC)c2)c(=O)c2ccccc2n1C,9.61
17,O=C(N/N=C/c1cccnc1)NC12CC3CC(CC(C3)C1)C2,5.79
18,O=C(Cn1nnc(-c2cccs2)n1)NCc1cccs1,5.95
19,CC1(c2ccc3c(c2)OCCCO3)NC(=O)N(CC(=O)NCCc2ccccc2)C1=O (stereo not drawn),4.8
20,COc1cc(C#N)c(NC(=O)CN2CCC(C(N)=O)CC2)cc1OC,8.57
21,COc1cccc(COC(=O)c2cc(=O)[nH]c3ccc(S(=O)(=O)N4CCOCC4)cc23)c1OC,-0.935
22,COc1ccc(CNC(=O)CN(C(=O)CCC(=O)Nc2nccs2)c2ccccc2C)cc1,2.27
23,CCOC(=O)c1cccnc1SCC(=O)N(C)c1ccccc1,4.5

row,SMILES,"hERG current change (%, negative = inhibition) at 1uM [%]"
1,Cc1cc(C(=O)N/N=C2\CCCC(=O)C2)c(C)n1-c1ccccc1,8.28
2,CCOc1ccccc1N(CC(=O)NC1CCCCC1)C(=O)c1nsc(Cl)c1Cl,8.91
3,Cc1ccc(C(=O)OCc2nnc(-c3ccccc3)o2)s1,13.6
4,O=C(Cn1cccc1C(=O)c1ccccc1)NCc1cccc(Cl)c1,10.4
5,CCOc1ccc(/C=N/Nc2nc(C)cs2)c(O)c1,24.1
6,CCc1nnc(NC(=O)Cc2c[nH]c3ccccc23)s1,9.81
7,CC1=NN(c2ccc(Cl)cc2)C(=O)C1,4.8
8,CCOc1ccc(N2CC(=O)Nc3ccccc3NCC2=O)cc1,2.33
9,O=C(NCc1ccncc1)C1CCCCC1,2.06
10,O=C(CSc1nnc(-c2ccncc2)n1CC1CCCO1)NCc1ccccc1 (stereo not drawn),6.3
11,COC(=O)c1ccc(NC(=S)N2CCN(Cc3cccc(C)c3)CC2)cc1,-0.74
12,Nc1c(Cl)ncnc1N/N=C/c1ccccn1,-3.65
13,CNC(=S)N/N=C1\C(=O)c2cccc3cccc1c23,6.49
14,O=C(CCCn1c(=S)[nH]c2ccccc2c1=O)N1CCOCC1,4.2
15,O=C(O)CCNC(=O)c1ccc(Br)o1,3.01
16,CSCCC(NC(=O)c1ccco1)C(=O)NCC1CCCO1 (stereo not drawn),8.32
17,CC(C)n1nc(C(=O)NCc2ccc3c(c2)OCO3)c2ccccc2c1=O,9.91
18,CSc1nc(-c2ccccc2)nn1C(=O)c1ccc(Cl)cc1,11.1
19,CC(=O)Nc1ccc(S(=O)(=O)N2C3CCCC2CC(NC(=O)C2CCCCC2)C3)cc1 (stereo not drawn),11.2
20,Cc1ccc(CNC(=O)CNC(=O)c2ccco2)cc1,25.1
21,COc1ccc(C(=O)Nc2cccnc2)cc1S(=O)(=O)N1CCOCC1,10.5
22,Nn1c(Cc2ccccc2F)nnc1SCC(=O)N1CC(=O)Nc2ccccc21,4.79
23,O=C(c1cc([N+](=O)[O-])ccc1Cl)N1c2ccccc2Sc2ccccc21,3.47

row,SMILES,"hERG current change (%, negative = inhibition) at 1uM [%]"
1,CCN1CCN(c2ccc(S(=O)(=O)N3CCCCC3)cc2NC(=O)CC(NC(C)=O)c2ccccc2)CC1 (stereo not drawn),14
2,Cc1ccc(NS(=O)(=O)c2ccc(C(=O)NCCCN3CCCC3=O)cc2)cc1,16.9
3,COc1cc(C)c(Cl)cc1S(=O)(=O)N(C)C,4.63
4,CC[n+]1cccc(-c2nc3ccccc3s2)c1.[I-],7.25
5,COc1cc2ncnc(NCc3ccccc3C)c2cc1OC,6.56
6,CCCCNC(=O)CSc1nc(N)c(C(=O)Nc2ccc(OC)cc2)s1,11
7,CC(CNCC1CCCO1)COc1ccccc1.O=C(O)C(=O)O (stereo not drawn),17.1
8,O=[N+]([O-])c1cccc(/C=C/c2nc3ccc([N+](=O)[O-])cc3[nH]2)c1,7.43
9,O=C1c2ccccc2C(O)N1Cc1ccco1 (stereo not drawn),12.5
10,COc1ccc(/C=C(/NC(=O)c2ccc(Br)cc2)C(=O)N2CCOCC2)cc1,7.06
11,O=C1CCC/C(=N/NC(=O)c2ccc(NS(=O)(=O)c3cccs3)cc2)C1,9.72
12,C=C1CCN([C@@H](C)C(=O)NCc2ccc(OC)cc2)S(=O)(=O)c2ccccc21,6.8
13,Cc1ccc(N2C(=O)C3C(C2=O)C2C=CC3C23CC3)cc1 (stereo not drawn),-7.92
14,CC(C)(C)C(=O)Nc1ncccc1C(O)c1cccc(C(F)(F)F)c1 (stereo not drawn),8.26
15,COc1cccc(OC)c1C(=O)NC(=S)Nc1ccc2c(c1)Cc1ccccc1-2,2.06
16,Cc1noc(C)c1C(=O)N1CCN(S(=O)(=O)c2cccc(Cl)c2Cl)CC1,2.62
17,COc1ccc(C)cc1NC(=O)CSc1nc2scc(C)c2c(=O)[nH]1,15.2
18,CC1(C)CC(C(CC(=O)N2CCCC2)Cc2ccccc2)CCO1 (stereo not drawn),-2.4
19,CCC(C(=O)Nc1c[nH]c(=O)[nH]c1=O)c1ccccc1 (stereo not drawn),13.7
20,CCC(=O)NC(=S)NNC(=O)c1ccc(NC(=O)c2ccccc2)cc1,-0.478
21,CS(=O)(=O)c1sc2nc(-c3ccccc3)cc(-c3ccccc3)c2c1N,25
